# According to publication PMC4336329 (PLoS ONE, 2015):
# Among all 310,000 compounds or so, about 14,000 (4.5%) showed an effect of 50% or more. Effects have a minus sign here. Some of the results follow.
# Biological target: human ether-à-go-go-related gene (hERG) potassium channel (human, UniProt Q12809)
# Test: primary screen, population patch clamp on CHO cells stably expressing hERG
# 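Further: peak tail current of the secondary pulse compared with the same well before compound.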
# Chain of human ether-à-go-go-related gene (hERG) potassium channel (Q12809 whole entry, looked up): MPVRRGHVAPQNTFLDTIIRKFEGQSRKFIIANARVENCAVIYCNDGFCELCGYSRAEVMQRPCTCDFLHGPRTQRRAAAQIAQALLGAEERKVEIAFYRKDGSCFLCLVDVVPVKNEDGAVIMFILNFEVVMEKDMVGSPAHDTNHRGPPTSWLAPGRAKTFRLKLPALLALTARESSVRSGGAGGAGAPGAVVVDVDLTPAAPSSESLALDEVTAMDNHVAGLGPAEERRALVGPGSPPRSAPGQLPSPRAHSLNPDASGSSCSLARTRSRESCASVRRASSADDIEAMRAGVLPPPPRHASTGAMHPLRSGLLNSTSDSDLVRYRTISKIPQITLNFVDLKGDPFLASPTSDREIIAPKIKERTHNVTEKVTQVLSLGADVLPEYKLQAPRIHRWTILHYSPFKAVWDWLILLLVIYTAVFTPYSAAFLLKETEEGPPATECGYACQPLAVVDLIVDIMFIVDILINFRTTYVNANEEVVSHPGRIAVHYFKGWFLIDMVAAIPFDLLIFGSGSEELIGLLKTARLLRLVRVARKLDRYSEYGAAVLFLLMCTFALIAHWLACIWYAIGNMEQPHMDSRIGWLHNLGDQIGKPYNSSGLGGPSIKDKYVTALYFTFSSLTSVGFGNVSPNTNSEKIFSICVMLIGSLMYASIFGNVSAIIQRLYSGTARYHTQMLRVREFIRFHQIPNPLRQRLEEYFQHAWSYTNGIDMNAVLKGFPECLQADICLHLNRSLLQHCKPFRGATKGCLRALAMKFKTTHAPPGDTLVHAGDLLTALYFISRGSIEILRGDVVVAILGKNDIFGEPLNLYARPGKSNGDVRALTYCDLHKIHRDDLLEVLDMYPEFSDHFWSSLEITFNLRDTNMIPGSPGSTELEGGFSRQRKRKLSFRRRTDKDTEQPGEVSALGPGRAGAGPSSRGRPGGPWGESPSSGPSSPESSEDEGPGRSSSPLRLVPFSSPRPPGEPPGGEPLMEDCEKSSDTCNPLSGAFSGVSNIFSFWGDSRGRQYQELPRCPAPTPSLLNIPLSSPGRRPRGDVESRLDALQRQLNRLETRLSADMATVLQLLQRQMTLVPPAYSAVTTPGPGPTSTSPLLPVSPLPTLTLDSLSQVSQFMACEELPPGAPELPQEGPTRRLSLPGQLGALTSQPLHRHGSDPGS
row,SMILES,"hERG current change (%, negative = inhibition) at 10uM [%]"
1,CCCOc1ccccc1/C=C1\SC(N2CCCCC2)=NC1=O,-12.3
2,COc1ccc(S(=O)(=O)NC2CCCC2)cc1Br,-7.96
3,O=C1CC2(CCN(C(=O)C3CC(=O)N(c4ccc(F)cc4)C3)CC2)Oc2ccccc21 (stereo not shown),-78.7
4,COc1ccc(C(C)=O)cc1CN1C(=O)NC2(CCCCC2C)C1=O (stereo not shown),-2.09
5,Cc1cccc2cc(CN(C(=O)c3cnccn3)C3CCCCC3)c(Cl)nc12,10.8
6,Cn1c(SCC(=O)NC2CCCC2)nnc1-c1ccncc1,33.9
7,COC(=O)CCCNC(=O)c1ccc2oc(CCCc3ccccc3)nc2c1,-17.9
8,Cc1ccc(OCCOC(=O)c2sc(=S)n(C)c2C)cc1,16.8
9,CC(=O)Nc1ccc(S(=O)(=O)NC2(C(F)(F)F)NC(=O)N(c3ccc(C)cc3)C2=O)cc1 (stereo not shown),11.1
10,O=C1C2C3C=CC(C2C(=O)N1c1ccc(O)cc1)C1C2C(=O)N(c4ccc(O)cc4)C(=O)C2C31 (stereo not shown),-10.7
11,Cc1cc(N2CCN(C(c3ccccc3)c3ccccc3)CC2)n2ncnc2n1,-5.7
12,CN(C(=O)CO/N=C/c1ccc(OC(F)F)cc1)C1CCS(=O)(=O)C1 (stereo not shown),-59.2
13,COCCNC(=O)COc1ncnc2scc(-c3ccc(F)cc3)c12,-0.0199
14,CC(=O)Oc1ccc(N2C(=O)C3C4C=CC(O4)C3C2=O)cc1 (stereo not shown),17.3
15,CC(=O)NC(Cc1ccc(F)c(F)c1)C(=O)NC1CCN(C(=O)c2ccc(Cl)cc2)CC1 (stereo not shown),-56.9
16,CCCOc1ccc(CC(=O)NCCc2ccccc2)cc1OC,-3.19
17,CCCCc1ccc(/C(C)=N/NC(=O)C2CCCC2)cc1,8.29
18,CCOc1ccc(-n2c(Cc3cc(=O)[nH]c(=O)[nH]3)nnc2SCC(N)=O)cc1,1.61
19,O=C1NC(=O)N(c2ccccc2)C(=O)/C1=C\c1ccc([N+](=O)[O-])o1,1.93
20,N#Cc1c(-c2ccc(Cl)cc2)ccn2nc(CCC(=O)O)nc12,16.4
21,COc1ccc(C2C(=O)N(C3CCCCC3)CC(=O)N2Cc2ccco2)cc1 (stereo not shown),-53.7
22,COc1ccccc1NC(=O)c1ccc(NC(=O)CSc2ncn[nH]2)cc1,19.1
23,O=C(COC(=O)c1ccc(Cl)c(S(=O)(=O)N2CCCCCC2)c1)Nc1ccccc1,-0.489
24,Cc1nn(-c2ccccc2)c(C)c1-c1ccccc1O,4.92
25,COC(=O)c1ccccc1N1C(=O)[C@@H]2C(c3ccc(F)cc3)=NO[C@@H]2C1=O,-5.78
26,O=C(CCNS(=O)(=O)c1cccc2nsnc12)Nc1ccc2c(c1)OCCO2,7.28
27,CCOc1ccc(NC(=O)CN(C)C(=O)c2ccc(NC3CC3)c([N+](=O)[O-])c2)cc1OCC,-59
28,CCOC(=O)c1c(S(=O)(=O)NCC(=O)N2CCN(c3ccc(OC)cc3)CC2)c(C)n(C)c1C,9.12

row,SMILES,"hERG current change (%, negative = inhibition) at 10uM [%]"
1,CC(C)=CCSc1nnc(CCNC(=O)OC(C)(C)C)o1,-36.5
2,Cc1ccc(CSC2=CS(=O)(=O)c3ccccc3N2)cc1,-6.46
3,COCCNC(=O)CN(C(=O)Cn1nnc2ccccc21)c1ccc(F)c(Cl)c1,-3.78
4,CC(C)CNC(=S)NNC(=O)c1ccc(OC(F)F)cc1,-17.4
5,O=C(OC(C(=O)Nc1ccc(Cl)cc1C(F)(F)F)c1ccccc1)C1=COCCO1 (stereo not shown),-39.2
6,CC1CCC(NC(=O)c2ccc(S(C)(=O)=O)cc2)CC1 (stereo not shown),8.59
7,COCCn1c(=O)[nH]c2cc(C(=O)NCCCN3CCN(c4ccc(F)cc4)CC3)ccc2c1=O,-11.5
8,O=C(CC1C(=O)NCCN1Cc1cccc(C(F)(F)F)c1)NC1CCCCCC1 (stereo not shown),5.99
9,COC(=O)c1cn(-c2nc(C)c3c(n2)CCC3)nn1,16.5
10,C(=C\CSc1ncn[nH]1)/CSc1ncn[nH]1,-1.48
11,CC(=O)Cn1nnc2sc(-c3ccccc3)cc2c1=O,13.4
12,O=C(NCc1cccc(C(F)(F)F)c1)C1CCC(=O)N(C2CCCCCC2)C1 (stereo not shown),-23.1
13,COc1ccc(C2C(C(=O)NCCN3CCOCC3)c3ccccc3C(=O)N2C2CCCCC2)cc1 (stereo not shown),-13.4
14,CCN1CCN(Cc2ccc(OCc3ccccc3)c(OC)c2)CC1,-17.7
15,COc1ccc(N2CCN(Cc3nc(N)nc(N4CCCc5ccccc54)n3)CC2)cc1,-27.9
16,CN(C)C(C(=O)Nc1cc(Cl)cc(Cl)c1)c1ccccc1 (stereo not shown),-3.96
17,O=S(=O)(NCCCSc1ccccc1)c1ccccc1F,-79.6
18,O=C(CSc1nnc(C2CC2)n1CC1CCCO1)Nc1ccc(Cl)cc1 (stereo not shown),-56.8
19,COc1ccc(OC)c(NC(=O)C(=O)N/N=C/c2ccccc2[N+](=O)[O-])c1,5.79
20,O=C(NCCCN1CCOCC1)c1ccc2nc(Cc3cccc(Cl)c3)oc2c1,-7.7
21,O=C(CC(Nc1ccc(F)cc1)C(=O)O)c1ccccc1 (stereo not shown),12.5
22,COc1cc(NC(=S)Nc2ccccn2)cc(OC)c1,0.145
23,Cc1ccc(-n2c(C)c3c(C)nnc(C)c3c2C)cc1C,-34
24,COc1ccc(C=C2C=C(C(C)(C)C)C(=O)C(C(C)(C)C)=C2)cc1OC,20
25,Cc1cc([N+](=O)[O-])ccc1NC(=O)CSc1nncn1-c1ccccn1,-28.1
26,COc1ccc(NC(=O)CN(C)C(=O)CNC(=O)c2sc3ccccc3c2Cl)cc1,-49.6
27,O=C(CCNC(=O)c1ccc(Br)cc1)Nc1cccc(S(=O)(=O)N2CCCC2)c1,-32.7
